In article PMC9911399, “Two distinct binding modes provide the RNA-binding protein RbFox with extraordinary sequence specificity”:
Numbering of substitutions follows the chain as printed; changes in the protein carry UniProt numbers. The list shows a part of the results.

B1: AACGGCC (DNA:RNA)
RNA: GGGAGACCGGAAUUCAGAUUGUCCAACGGCCUUAAAUCCCGUCGUAGCCACCA
DNA 1: CAATCTGAATTCCGGTCTCCC
DNA 2: TGGTGGCTACGACGGGATT
B2: CCUAAUA (DNA:RNA)
RNA: GGGAGACCGGAAUUCAGAUUGUCCCCUAAUAUUAAAUCCCGUCGUAGCCACCA
DNA 1: CAATCTGAATTCCGGTCTCCC
DNA 2: TGGTGGCTACGACGGGATT
B3: UAAUUAU (DNA:RNA)
RNA: B1 RNA with A25U, C27A, G28U, G29U, C30A, C31U
DNA 1: CAATCTGAATTCCGGTCTCCC
DNA 2: TGGTGGCTACGACGGGATT
B4: CGUAACG (DNA:RNA)
RNA: B2 RNA with C26G, U30C, A31G
DNA 1: CAATCTGAATTCCGGTCTCCC
DNA 2: TGGTGGCTACGACGGGATT
B5: UCUACCG (DNA:RNA)
RNA: B2 RNA with C25U, A29C, U30C, A31G
DNA 1: CAATCTGAATTCCGGTCTCCC
DNA 2: TGGTGGCTACGACGGGATT
B6: GAAAUGC (DNA:RNA)
RNA: B1 RNA with A25G, C27A, G28A, G29U, C30G
DNA 1: CAATCTGAATTCCGGTCTCCC
DNA 2: TGGTGGCTACGACGGGATT
B7: AAUGGCG (DNA:RNA)
RNA: B1 RNA with C27U, C31G
DNA 1: CAATCTGAATTCCGGTCTCCC
DNA 2: TGGTGGCTACGACGGGATT
B8: UCCAAUC (DNA:RNA)
RNA: B2 RNA with C25U, U27C, A31C
DNA 1: CAATCTGAATTCCGGTCTCCC
DNA 2: TGGTGGCTACGACGGGATT
B9: CGCUGGG (DNA:RNA)
RNA: B1 RNA with A25C, A26G, G28U, C30G, C31G
DNA 1: CAATCTGAATTCCGGTCTCCC
DNA 2: TGGTGGCTACGACGGGATT
B10: GUAUAUU (DNA:RNA)
RNA: B2 RNA with C25G, C26U, U27A, A28U, A31U
DNA 1: CAATCTGAATTCCGGTCTCCC
DNA 2: TGGTGGCTACGACGGGATT
B11: GGGACGC (DNA:RNA)
RNA: B1 RNA with A25G, A26G, C27G, G28A, G29C, C30G
DNA 1: CAATCTGAATTCCGGTCTCCC
DNA 2: TGGTGGCTACGACGGGATT
B12: GCGUCCU (DNA:RNA)
RNA: B1 RNA with A25G, A26C, C27G, G28U, G29C, C31U
DNA 1: CAATCTGAATTCCGGTCTCCC
DNA 2: TGGTGGCTACGACGGGATT
B13: GUCUUCU (DNA:RNA)
RNA: B1 RNA with A25G, A26U, G28U, G29U, C31U
DNA 1: CAATCTGAATTCCGGTCTCCC
DNA 2: TGGTGGCTACGACGGGATT
B14: UUCCAUC (DNA:RNA)
RNA: B1 RNA with A25U, A26U, G28C, G29A, C30U
DNA 1: CAATCTGAATTCCGGTCTCCC
DNA 2: TGGTGGCTACGACGGGATT
B15: GCUAAAA (DNA:RNA)
RNA: B2 RNA with C25G, U30A
DNA 1: CAATCTGAATTCCGGTCTCCC
DNA 2: TGGTGGCTACGACGGGATT
B16: CGUGCGU (DNA:RNA)
RNA: B2 RNA with C26G, A28G, A29C, U30G, A31U
DNA 1: CAATCTGAATTCCGGTCTCCC
DNA 2: TGGTGGCTACGACGGGATT
B17: CCUACUC (DNA:RNA)
RNA: B2 RNA with A29C, A31C
DNA 1: CAATCTGAATTCCGGTCTCCC
DNA 2: TGGTGGCTACGACGGGATT
B18: UACGAGA (DNA:RNA)
RNA: B1 RNA with A25U, G29A, C30G, C31A
DNA 1: CAATCTGAATTCCGGTCTCCC
DNA 2: TGGTGGCTACGACGGGATT
B19: GGAUUGU (DNA:RNA)
RNA: GGGAGACCGGAAUUCAGAUUGUCCGGAUUGUUUAAAUCCCGUCGUAGCCACCA
DNA 1: CAATCTGAATTCCGGTCTCCC
DNA 2: TGGTGGCTACGACGGGATT
B20: AAGUGUG (DNA:RNA)
RNA: B1 RNA with C27G, G28U, C30U, C31G
DNA 1: CAATCTGAATTCCGGTCTCCC
DNA 2: TGGTGGCTACGACGGGATT
B21: GGUAUCC (DNA:RNA)
RNA: B19 RNA with A27U, U28A, G30C, U31C
DNA 1: CAATCTGAATTCCGGTCTCCC
DNA 2: TGGTGGCTACGACGGGATT
B22: CUCACCU (DNA:RNA)
RNA: B1 RNA with A25C, A26U, G28A, G29C, C31U
DNA 1: CAATCTGAATTCCGGTCTCCC
DNA 2: TGGTGGCTACGACGGGATT
B23: GCCUGCG (DNA:RNA)
RNA: B1 RNA with A25G, A26C, G28U, C31G
DNA 1: CAATCTGAATTCCGGTCTCCC
DNA 2: TGGTGGCTACGACGGGATT
B24: AGCGCCU (DNA:RNA)
RNA: B1 RNA with A26G, G29C, C31U
DNA 1: CAATCTGAATTCCGGTCTCCC
DNA 2: TGGTGGCTACGACGGGATT
B25: GGAAACA (DNA:RNA)
RNA: B2 RNA with C25G, C26G, U27A, U30C
DNA 1: CAATCTGAATTCCGGTCTCCC
DNA 2: TGGTGGCTACGACGGGATT
B26: UGCGCAC (DNA:RNA)
RNA: B1 RNA with A25U, A26G, G29C, C30A
DNA 1: CAATCTGAATTCCGGTCTCCC
DNA 2: TGGTGGCTACGACGGGATT
B27: CGCCGGC (DNA:RNA)
RNA: B1 RNA with A25C, A26G, G28C, C30G
DNA 1: CAATCTGAATTCCGGTCTCCC
DNA 2: TGGTGGCTACGACGGGATT
B28: GGCGCUU (DNA:RNA)
RNA: B19 RNA with A27C, U28G, U29C, G30U
DNA 1: CAATCTGAATTCCGGTCTCCC
DNA 2: TGGTGGCTACGACGGGATT
B29: UAACCUU (DNA:RNA)
RNA: B19 RNA with G25U, G26A, U28C, U29C, G30U
DNA 1: CAATCTGAATTCCGGTCTCCC
DNA 2: TGGTGGCTACGACGGGATT
B30: GCGCUUG (DNA:RNA)
RNA: B2 RNA with C25G, U27G, A28C, A29U, A31G
DNA 1: CAATCTGAATTCCGGTCTCCC
DNA 2: TGGTGGCTACGACGGGATT
B31: ACACACG (DNA:RNA)
RNA: B1 RNA with A26C, C27A, G28C, G29A, C31G
DNA 1: CAATCTGAATTCCGGTCTCCC
DNA 2: TGGTGGCTACGACGGGATT

Biological target: T1, RBFOX1 RRM RbFoxmut (Fox-RRM*) (Homo sapiens, UniProt Q9NWB1 109-208, R118D;E147R;N151S;E152T)
T1 sequence: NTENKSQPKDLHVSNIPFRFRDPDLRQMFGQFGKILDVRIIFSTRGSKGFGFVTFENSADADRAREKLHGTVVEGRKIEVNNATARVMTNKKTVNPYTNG
Test: EMSA; HiTS-Eq, 1 nM pool, 10 min; buffer printed only for the single-RNA assays: 10 mM Tris pH 7.5, 150 mM NaCl, 3.4 mM EDTA, 0.001% NP-40, 30 C
Details: tags: His6 N-terminal (pET28a); label: 5' 32P
Summary of the method: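 A pool of RNA with 7 randomized nucleotides, 5′-radiolabelled and with DNA-annealed flanks, was equilibrated at 1 nM for 10 min in 50 µL with purified RbFox RRM, wild type or mutant, across increasing protein concentrations. Free RNA was separated by 8% native PAGE, excised, reverse-transcribed, barcoded by PCR and sequenced. Relative association constants were obtained from read-count changes of each RNA species versus the control reaction and normalised to the cognate motif.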

Row | Binder | binding signal
1 | B1 | 0.145 KA relative to UGCAUGU
2 | B2 | 0.0998 KA relative to UGCAUGU
3 | B3 | 0.085 KA relative to UGCAUGU
4 | B4 | 0.135 KA relative to UGCAUGU
5 | B5 | 0.0834 KA relative to UGCAUGU
6 | B6 | 0.072 KA relative to UGCAUGU
7 | B7 | 0.134 KA relative to UGCAUGU
8 | B8 | 0.0512 KA relative to UGCAUGU
9 | B9 | 0.0695 KA relative to UGCAUGU
10 | B10 | 0.143 KA relative to UGCAUGU
11 | B11 | 0.0977 KA relative to UGCAUGU
12 | B12 | 0.0776 KA relative to UGCAUGU
13 | B13 | 0.165 KA relative to UGCAUGU
14 | B14 | 0.0845 KA relative to UGCAUGU
15 | B15 | 0.0917 KA relative to UGCAUGU
16 | B16 | 0.118 KA relative to UGCAUGU

Row | Binder | binding signal
17 | B17 | 0.0423 KA relative to UGCAUGU
18 | B18 | 0.0877 KA relative to UGCAUGU
19 | B19 | 0.39 KA relative to UGCAUGU
20 | B20 | 0.192 KA relative to UGCAUGU
21 | B21 | 0.116 KA relative to UGCAUGU
22 | B22 | 0.0924 KA relative to UGCAUGU
23 | B23 | 0.172 KA relative to UGCAUGU
24 | B24 | 0.0862 KA relative to UGCAUGU
25 | B25 | 0.0775 KA relative to UGCAUGU
26 | B26 | 0.0807 KA relative to UGCAUGU
27 | B27 | 0.0729 KA relative to UGCAUGU
28 | B28 | 0.0641 KA relative to UGCAUGU
29 | B29 | 0.0688 KA relative to UGCAUGU
30 | B30 | 0.228 KA relative to UGCAUGU
31 | B31 | 0.108 KA relative to UGCAUGU
